Laboratory results as given in the supplement of paper PMC12458215.
± gives the uncertainty stated by the source.

tested on: HEK293T; experiment: plasma membrane surface immunostaining intensity (anti-HA, deep receptor scanning) (arbitrary fluorescence units); higher = higher plasma membrane expression; details: GPCR class: A

Sequence | plasma membrane surface immunostaining intensity
MTNSSSTSTSSTTGGSLLLLCEEEESWAGRRIPVSLLYSGLAIGGTLANGMVIYLVSSFRKLQTTSNAFIVNGCAADLSVCALWMPQEAVLGLLPTGSAEPPADWDGAGGSYRLLRGGLLGLGLTVSLLSHCLVALNRYLLITRAPATYQALYQRRHTAGMLALSWALALGLVLLLPPWAPRPGAAPPRVHYPALLAAAALLAQTALLLHCYLGIVRRVRVSVKRVSVLNFHLLHQLPGCAAAAAAFPGAQHAPGPGGAAHPAQAQPLPPALHPRRAQRRLSGLSVLLLCCVFLLATQPLVWVSLASGFSLPVPWGVQAASWLLCCALSALNPLLYTWRNEEFRRSVRSVLPGVGDAAAAAVAATAVPAVSQAQLGTRAAGQHW [GPR88] | 449 ± 30
MVFAHRMDNSKPHLIIPTLLVPLQNRSCTETATPLPSQYLMELSEEHSWMSNQTDLHYVLKPGEVATASIFFGILWLFSIFGNSLVCLVIHRSRRTQSTTNYFVVSMACADLLISVASTPFVLLQFTTGRWTLGSATCKVVRYFQYLTPGVQIYVLLSICIDRFYTIVYPLSFKVSREKAKKMIAASWVFDAGFVTPVLFFYGSNWDSHCNYFLPSSWEGTAYTVIHFLVGFVIPSVLIILFYQKVIKYIWRIGTDGRTVRRTMNIVPRTKVKTIKMFLILNLLFLLSWLPFHVAQLWHPHEQDYKKSSLVFTAITWISFSSSASKPTLYSIYNANFRRGMKETFCMSSMKCYRSNAYTITTSSRMAKKNYVGISEIPSMAKTITKDSIYDSFDREAKEKKLAWPINSNPPNTFV [GPR19] | 371 ± 34
MVPEPGPTANSTPAWGAGPPSAPGGSGWVAAALCVVIALTAAANSLLIALICTQPALRNTSNFFLVSLFTSDLMVGLVVMPPAMLNALYGRWVLARGLCLLWTAFDVMCCSASILNLCLISLDRYLLILSPLRYKLRMTPLRALALVLGAWSLAALASFLPLLLGWHELGHARPPVPGQCRLLASLPFVLVASGLTFFLPSGAICFTYCRILLAARKQAVQVASLTTGMASQASETLQVPRTPRPGVESADSRRLATKHSRKALKASLTLGILLGMFFVTWLPFFVANIVQAVCDCISPGLFDVLTWLGYCNSTMNPIIYPLFMRDFKRALGRFLPCPRCPRERQASLASPSLRTSHSGPRPGLSLQQVLPLPLPPDSDSDSDAGSGGSSGLRLTAQLLLPGEATQDPPLPTRAAAAVNFFNIDPAEPELRPHPLGIPTN [HTR6] | 2630 ± 860
MWSCSWFNGTGLVEELPACQDLQLGLSLLSLLGLVVGVPVGLCYNALLVLANLHSKASMTMPDVYFVNMAVAGLVLSALAPVHLLGPPSSRWALWSVGGEVHVALQIPFNVSSLVAMYSTALLSLDHYIERALPRTYMASVYNTRHVCGFVWGGALLTSFSSLLFYICSHVSTRALECAKMQNAEAADATLVFIGYVVPALATLYALVLLSRVRREDTPLDRDTGRLEPSAHRLLVATVCTQFGLWTPHYLILLGHTVIISRGKPVDAHYLGLLHFVKDFSKLLAFSSSFVTPLLYRYMNQSFPSKLQRLMKKLPCGDRHCSPDHMGVQQVLA [GPR146] | 210 ± 16
MYNGSCCRIEGDTISQVMPPLLIVAFVLGALGNGVALCGFCFHMKTWKPSTVYLFNLAVADFLLMICLPFRTDYYLRRRHWAFGDIPCRVGLFTLAMNRAGSIVFLTVVAADRYFKVVHPHHAVNTISTRVAAGIVCTLWALVILGTVYLLLENHLCVQETAVSCESFIMESANGWHDIMFQLEFFMPLGIILFCSFKIVWSLRRRQQLARQARMKKATRFIMVVAIVFITCYLPSVSARLYFLWTVPSSACDPSVHGALHITLSFTYMNSMLDPLVYYFSSPSFPKFYNKLKICSLKPKQPGHSKTQRPEEMPISNLGRRSCISVANSFQSQSDGQWDPHIVEWH [HCAR1] | 6459 ± 51
MYSGNRSGGHGYWDGGGAAGAEGPAPAGTLSPAPLFSPGTYERLALLLGSIGLLGVGNNLLVLVLYYKFQRLRTPTHLLLVNISLSDLLVSLFGVTFTFVSCLRNGWVWDTVGCVWDGFSGSLFGIVSIATLTVLAYERYIRVVHARVINFSWAWRAITYIWLYSLAWAGAPLLGWNRYILDVHGLGCTVDWKSKDANDSSFVLFLFLGCLVVPLGVIAHCYGHILYSIRMLRCVEDLQTIQVIKILKYEKKLAKMCFLMIFTFLVCWMPYIVICFLVVNGHGHLVTPTISIVSYLFAKSNTVYNPVIYVFMIRKFRRSLLQLLCLRLLRCQRPAKDLPAAGSEMQIRPIVMSQKDGDRPKKKVTFNSSSIIFIITSDESLSVDDSDKTNGSKVDVIQVRPL [OPN3] | 622 ± 43

same assay, conditions: GPCR class: C

Sequence | plasma membrane surface immunostaining intensity
MVCEGKRSASCPCFFLLTAKFYWILTMMQRTHSQEYAHSIRVDGDIILGGLFPVHAKGERGVPCGELKKEKGIHRLEAMLYAIDQINKDPDLLSNITLGVRILDTCSRDTYALEQSLTFVQALIEKDASDVKCANGDPPIFTKPDKISGVIGAAASSVSIMVANILRLFKIPQISYASTAPELSDNTRYDFFSRVVPPDSYQAQAMVDIVTALGWNYVSTLASEGNYGESGVEAFTQISREIGGVCIAQSQKIPREPRPGEFEKIIKRLLETPNARAVIMFANEDDIRRILEAAKKLNQSGHFLWIGSDSWGSKIAPVYQQEEIAEGAVTILPKRASIDGFDRYFRSRTLANNRRNVWFAEFWEENFGCKLGSHGKRNSHIKKCTGLERIARDSSYEQEGKVQFVIDAVYSMAYALHNMHKDLCPGYIGLCPRMSTIDGKELLGYIRAVNFNGSAGTPVTFNENGDAPGRYDIFQYQITNKSTEYKVIGHWTNQLHLKVEDMQWAHREHTHPASVCSLPCKPGERKKTVKGVPCCWHCERCEGYNYQVDELSCELCPLDQRPNMNRTGCQLIPIIKLEWHSPWAVVPVFVAILGIIATTFVIVTFVRYNDTPIVRASGRELSYVLLTGIFLCYSITFLMIAAPDTIICSFRRVFLGLGMCFSYAALLTKTNRIHRIFEQGKKSVTAPKFISPASQLVITFSLISVQLLGVFVWFVVDPPHIIIDYGEQRTLDPEKARGVLKCDISDLSLICSLGYSILLMVTCTVYAIKTRGVPETFNEAKPIGFTMYTTCIIWLAFIPIFFGTAQSAEKMYIQTTTLTVSMSLSASVSLGMLYMPKVYIIIFHPEQNVQKRKRSFKAVVTAATMQSKLIQKGNDRPNGEVKSELCESLETNTSSTKTTYISYSNHSI [GRM8] | 6470 ± 80
